# This is one part of the list. Sequences were assembled here from the parent chain. Values near 0.05 are background.
# B1: TEV protease; numbered along this chain (parent)
# chain: MGESLFKGPRDYNPISSSICHLTNESDGHTTSLYGIGFGPFIITNKHLFRRNNGTLVVQSLHGVFKVKDTTTLQQHLVDGRDMIIIRMPKDFPPFPQKLKFREPQREERICLVTTNFQTKSMSSMVSDTSCTFPSGDGIFWKHWIQTKDGQCGSPLVSTRDGFIVGIHSASNFTNTNNYFTSVPKNFMELLTNQEAQQWVSGWRLNADSVLWGGHKVFMVKPEEPFQPVKEATQL
# Variants of: B1
# Experiment: raw area under fraction-flipped curve 0-4 h after induction (AUC4h, not background-subtracted), DNA-recorder readout of cleavage of the substrate (dimensionless); higher = more cleavage of the substrate by the protease variant
# Settings: temperature: 34 °C; time window: 0-4 h after rhamnose induction
# 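Note: Bxb1 expression induced with 0.2% (w/v) L-rhamnose at OD600 near 0.5, cultures sampled hourly, flipped fraction per protease–substrate barcode pair counted by paired-end Illumina sequencing.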
Variant,area with substrate ENAYFQS,area with substrate ENCYFQS,area with substrate ENDYFQS,area with substrate ENEYFQS,area with substrate ENFYFQS,area with substrate ENKYFQS,area with substrate ENNYFQS,area with substrate ENPYFQS,area with substrate ENQYFQS,area with substrate ENTYFQS,area with substrate ENVYFQS,area with substrate ENGYFQS,area with substrate ENHYFQS,area with substrate ENWYFQS,area with substrate ENYYFQS,area with substrate ENMYFQS,area with substrate ENRYFQS,area with substrate ENSYFQS,area with substrate ENIYFQS
MGESLFKGPRDYNPISSSICHLTNESDGHTTSLYGIGFGPFIITNKHLFRRNNGTLVVQSLHGVFKVKDTTTLQQHLVDGRDMIIIRMPKDFPPFPQKLKFREPQREERICLVTTNFQTKSMSSMVSDTSCTFPSGDGIFWKHWIQTKDGQCGSPLVSTHDGFIVGIHSASNFTNTNNYFTSVPKNFMELLTNQEAQQWVSGWRLNADSVLWGGHKVFMVKPEEPFQPVKEATQL [R160H],0.0561,0.0824,0.117,0.0553,0.0834,0.0559,0.0588,0.068,0.063,0.0653,0.0751,,,,,,,,
MGESLFKGPRDYNPISSSICHLTNESDGHTTSLYGIGFGPFIITNKHLFRRNNGTLVVQSLHGVFKVKDTTTLQQHLVDGRDMIIIRMPKDFPPFPQKLKFREPQREERICLVTTNFQTKSMSSMVSDTSCTFPSGDGIFWKHWIQTKDGQCGSPLVSTRHGFIVGIHSASNFTNTNNYFTSVPKNFMELLTNQEAQQWVSGWRLNADSVLWGGHKVFMVKPEEPFQPVKEATQL [D161H],0.0421,0.0621,0.0514,0.0394,0.0353,0.0607,,,,,0.0722,0.0508,0.071,0.0212,0.0546,,,,
MGESLFKGPRDYNPISSSICHLTNESDGHTTSLYGIGFGPFIITNKHLFRRNNGTLVVQSLHGVFKVKDTTTLQQHLVDGRDMIIIRMPKDFPPFPQKLKFREPQREERICLVTTNFQTKSMSSMVSDTSCTFPSGDGIFWKHWIQTKDGQCGSPLVSTRTGFIVGIHSASNFTNTNNYFTSVPKNFMELLTNQEAQQWVSGWRLNADSVLWGGHKVFMVKPEEPFQPVKEATQL [D161T],0.0502,0.0749,0.0543,0.0523,,0.0641,0.0522,0.0732,,0.0707,,0.0607,0.0654,,0.0684,0.0549,0.0616,,
MGESLFKGPRDYNPISSSICHLTNESDGHTTSLYGIGFGPFIITNKHLFRRNNGTLVVQSLHGVFKVKDTTTLQQHLVDGRDMIIIRMPKDFPPFPQKLKFREPQREERICLVTTNFQTKSMSSMVSDTSCTFPSGDGIFWKHWIQTKDGQCGSPLVSTRDGLIVGIHSASNFTNTNNYFTSVPKNFMELLTNQEAQQWVSGWRLNADSVLWGGHKVFMVKPEEPFQPVKEATQL [F163L],0.0598,0.0699,0.0631,0.0745,0.0539,,,0.0529,0.0511,,,0.0586,,,,0.07,0.051,0.0576,
MGESLFKGPRDYNPISSSICHLTNESDGHTTSLYGIGFGPFIITNKHLFRRNNGTLVVQSLHGVFKVKDTTTLQQHLVDGRDMIIIRMPKDFPPFPQKLKFREPQREERICLVTTNFQTKSMSSMVSDTSCTFPSGDGIFWKHWIQTKDGQCGSPLVSTRDGFPVGIHSASNFTNTNNYFTSVPKNFMELLTNQEAQQWVSGWRLNADSVLWGGHKVFMVKPEEPFQPVKEATQL [I164P],0.0435,0.0231,0.0543,0.0589,0.0484,0.0369,0.0518,,0.0568,0.0366,0.0557,0.0534,0.0579,0.0335,,0.0523,0.0595,0.0482,0.047
MGESLFKGPRDYNPISSSICHLTNESDGHTTSLYGIGFGPFIITNKHLFRRNNGTLVVQSLHGVFKVKDTTTLQQHLVDGRDMIIIRMPKDFPPFPQKLKFREPQREERICLVTTNFQTKSMSSMVSDTSCTFPSGDGIFWKHWIQTKDGQCGSPLVSTRDGFWVGIHSASNFTNTNNYFTSVPKNFMELLTNQEAQQWVSGWRLNADSVLWGGHKVFMVKPEEPFQPVKEATQL [I164W],0.0517,0.0539,0.0536,0.0534,0.0321,0.0496,0.0629,0.0819,,0.0421,0.0554,,0.0515,,0.0513,,0.06,0.0616,
MGESLFKGPRDYNPISSSICHLTNESDGHTTSLYGIGFGPFIITNKHLFRRNNGTLVVQSLHGVFKVKDTTTLQQHLVDGRDMIIIRMPKDFPPFPQKLKFREPQREERICLVTTNFQTKSMSSMVSDTSCTFPSGDGIFWKHWIQTKDGQCGSPLVSTRDGFYVGIHSASNFTNTNNYFTSVPKNFMELLTNQEAQQWVSGWRLNADSVLWGGHKVFMVKPEEPFQPVKEATQL [I164Y],0.0504,0.0601,0.049,0.0517,0.0386,,0.0647,,,0.0584,0.0427,,,0.077,,,0.0421,0.0643,0.0463
MGESLFKGPRDYNPISSSICHLTNESDGHTTSLYGIGFGPFIITNKHLFRRNNGTLVVQSLHGVFKVKDTTTLQQHLVDGRDMIIIRMPKDFPPFPQKLKFREPQREERICLVTTNFQTKSMSSMVSDTSCTFPSGDGIFWKHWIQTKDGQCGSPLVSTRDGFIFGIHSASNFTNTNNYFTSVPKNFMELLTNQEAQQWVSGWRLNADSVLWGGHKVFMVKPEEPFQPVKEATQL [V165F],0.0649,0.171,0.0529,,,0.0719,,,0.056,,,0.0531,0.0557,,,,0.0481,,
MGESLFKGPRDYNPISSSICHLTNESDGHTTSLYGIGFGPFIITNKHLFRRNNGTLVVQSLHGVFKVKDTTTLQQHLVDGRDMIIIRMPKDFPPFPQKLKFREPQREERICLVTTNFQTKSMSSMVSDTSCTFPSGDGIFWKHWIQTKDGQCGSPLVSTRDGFIVNIHSASNFTNTNNYFTSVPKNFMELLTNQEAQQWVSGWRLNADSVLWGGHKVFMVKPEEPFQPVKEATQL [G166N],0.0625,0.0721,,0.0596,0.0534,0.0546,0.061,,0.0633,0.0474,0.062,,0.0599,,0.0459,,0.0287,,0.0595
MGESLFKGPRDYNPISSSICHLTNESDGHTTSLYGIGFGPFIITNKHLFRRNNGTLVVQSLHGVFKVKDTTTLQQHLVDGRDMIIIRMPKDFPPFPQKLKFREPQREERICLVTTNFQTKSMSSMVSDTSCTFPSGDGIFWKHWIQTKDGQCGSPLVSTRDGFIVPIHSASNFTNTNNYFTSVPKNFMELLTNQEAQQWVSGWRLNADSVLWGGHKVFMVKPEEPFQPVKEATQL [G166P],0.0521,0.0604,,,,,0.0417,0.0473,0.0468,0.0685,,,0.0442,,,0.0452,,0.0581,0.019
